Data taken from the supplement of paper PMC8728848.
Some of the results follow.

Tests used:
Assay in all cases: glycan array binding signal (z-score within array); higher = stronger binding
Conditions in all cases: glycan notation: IUPAC condensed, linker removed
Gal6S(b1-4)Glc = target: Gal6S(b1-4)Glc
Outline: (§1)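 The Consortium for Functional Glycomics database supplied 3228 glycan arrays, of which those lacking an available protein sequence were dropped. The binding signal, a within-array Z-score, was averaged across arrays of the same protein sequence and across linkers. Negative scores can be read as non-binding.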

Gal6S(b1-4)Glc6S = target: Gal6S(b1-4)Glc6S
Outline: as §1

Gal6S(b1-4)GlcNAc = target: Gal6S(b1-4)GlcNAc
Outline: as §1

Gal6S(b1-4)GlcNAc6S = target: Gal6S(b1-4)GlcNAc6S
Outline: as §1

GalNAc(a1-3)Gal = target: GalNAc(a1-3)Gal
Outline: as §1

GalNAc(a1-3)GalNAc = target: GalNAc(a1-3)GalNAc
Outline: as §1

[1] = target: GalNAc(a1-3)GalNAc(b1-3)Gal(a1-4)Gal(b1-4)Glc
Outline: as §1

[2] = target: GalNAc(a1-3)GalNAc(b1-3)Gal(a1-4)Gal(b1-4)GlcNAc
Outline: as §1

GalNAc(b1-3)Gal = target: GalNAc(b1-3)Gal
Outline: as §1

[3] = target: GalNAc(b1-3)Gal(a1-4)Gal(b1-4)GlcNAc
Outline: as §1

[4] = target: GalNAc(b1-3)Gal(a1-4)Gal(b1-4)GlcNAc(b1-3)Gal(b1-4)Glc
Outline: as §1

[5] = target: GalNAc(b1-3)Gal(a1-6)Gal(b1-4)Glc
Outline: as §1

GalNAc(b1-3)GalNAc = target: GalNAc(b1-3)GalNAc
Outline: as §1

GalNAc(b1-3)GlcNAc = target: GalNAc(b1-3)GlcNAc
Outline: as §1

GalNAc(b1-4)Gal(b1-4)Glc = target: GalNAc(b1-4)Gal(b1-4)Glc
Outline: as §1

GalNAc(b1-4)GlcNAc = target: GalNAc(b1-4)GlcNAc
Outline: as §1

[6] = target: GalNAc(b1-4)GlcNAc(b1-2)Man
Outline: as §1

[7] = target: GalNAc(b1-4)GlcNAc(b1-2)Man(a1-3)[GalNAc(b1-4)GlcNAc(b1-2)Man(a1-6)]Man(b1-4)GlcNAc(b1-4)GlcNAc
Outline: as §1

[8] = target: GalNAc(b1-4)GlcNAc(b1-3)GalNAc(b1-4)GlcNAc
Outline: as §1

GalNAc(b1-4)GlcNAc6S = target: GalNAc(b1-4)GlcNAc6S
Outline: as §1

GalNAc(b1-6)GalNAc = target: GalNAc(b1-6)GalNAc
Outline: as §1

GalNAc3S(b1-4)GlcNAc = target: GalNAc3S(b1-4)GlcNAc
Outline: as §1

GalNAc3S(b1-4)GlcNAc3S = target: GalNAc3S(b1-4)GlcNAc3S
Outline: as §1

[9] = target: GalNAc3S(b1-4)[Fuc(a1-3)]GlcNAc
Outline: as §1

GalNAc4S6S(b1-4)GlcNAc = target: GalNAc4S6S(b1-4)GlcNAc
Outline: as §1

GalNAc6S(b1-4)GlcNAc = target: GalNAc6S(b1-4)GlcNAc
Outline: as §1

Glc(a1-4)Glc = target: Glc(a1-4)Glc
Outline: as §1

[10] = target: Glc(a1-4)Glc(a1-4)Glc(a1-4)Glc
Outline: as §1

Glc(a1-6)Glc(a1-6)Glc = target: Glc(a1-6)Glc(a1-6)Glc
Outline: as §1

[11] = target: Glc(a1-6)Glc(a1-6)Glc(a1-6)Glc
Outline: as §1

Glc(b1-4)Glc = target: Glc(b1-4)Glc
Outline: as §1

Glc(b1-6)Glc = target: Glc(b1-6)Glc
Outline: as §1

GlcA(b1-3)Gal = target: GlcA(b1-3)Gal
Outline: as §1

GlcA(b1-3)GlcNAc = target: GlcA(b1-3)GlcNAc
Outline: as §1

GlcA(b1-6)Gal = target: GlcA(b1-6)Gal
Outline: as §1

[12] = target: GlcA3S(b1-3)Gal(b1-4)GlcNAc(b1-2)Man
Outline: as §1

[13] = target: GlcA3S(b1-3)Gal(b1-4)GlcNAc(b1-3)Gal(b1-4)Glc
Outline: as §1

B1: Epa6 (Candida glabrata), Q6DTM7_CANGB (protein)
chain: MGSSHHHHHHSSGLVPRGSHMKDDYSSSLSNNNLGWTDPTEFPLGCSPNVTTPKNGLSMELYSYDYLKSGSNPCWDAAYLDPNYPRTGYKSHRLLAKVENVAGNINFYYHAPMGCTSLFDTLPQAYNYRTPLTMTNFTMLLYGYFKPKVTGYHTFTISADDLLFVNFGAGNAFDCCKRESSADDFGNYQAYAVWGSQTAKDDLTVHLDAGLYYPIRIFFNNRDNDGALSLTLKTESDPNPVIDFSDYFYSFDDTKDGCPGLVSYDTS
- glycan array binding signal (z-score) (Gal6S(b1-4)Glc): -0.229
- glycan array binding signal (z-score) (Gal6S(b1-4)Glc6S): -0.251
- glycan array binding signal (z-score) (Gal6S(b1-4)GlcNAc): -0.24
- glycan array binding signal (z-score) (Gal6S(b1-4)GlcNAc6S): -0.303
- glycan array binding signal (z-score) (GalNAc(a1-3)Gal): -0.33
- glycan array binding signal (z-score) (GalNAc(a1-3)GalNAc): -0.326
- glycan array binding signal (z-score) [1]: -0.324
- glycan array binding signal (z-score) [2]: -0.277
- glycan array binding signal (z-score) (GalNAc(b1-3)Gal): -0.321
- glycan array binding signal (z-score) [3]: -0.126
- glycan array binding signal (z-score) [4]: -0.09
- glycan array binding signal (z-score) [5]: -0.309
- glycan array binding signal (z-score) (GalNAc(b1-3)GalNAc): -0.323
- glycan array binding signal (z-score) (GalNAc(b1-3)GlcNAc): -0.309
- glycan array binding signal (z-score) (GalNAc(b1-4)Gal(b1-4)Glc): -0.277
- glycan array binding signal (z-score) (GalNAc(b1-4)GlcNAc): -0.234
- glycan array binding signal (z-score) [6]: -0.328
- glycan array binding signal (z-score) [7]: -0.276
- glycan array binding signal (z-score) [8]: -0.327
- glycan array binding signal (z-score) (GalNAc(b1-4)GlcNAc6S): -0.325
- glycan array binding signal (z-score) (GalNAc(b1-6)GalNAc): -0.305
- glycan array binding signal (z-score) (GalNAc3S(b1-4)GlcNAc): -0.313
- glycan array binding signal (z-score) (GalNAc3S(b1-4)GlcNAc3S): -0.334
- glycan array binding signal (z-score) [9]: -0.285
- glycan array binding signal (z-score) (GalNAc4S6S(b1-4)GlcNAc): -0.321
- glycan array binding signal (z-score) (GalNAc6S(b1-4)GlcNAc): -0.31
- glycan array binding signal (z-score) (Glc(a1-4)Glc): -0.321
- glycan array binding signal (z-score) [10]: -0.267
- glycan array binding signal (z-score) (Glc(a1-6)Glc(a1-6)Glc): -0.312
- glycan array binding signal (z-score) [11]: -0.341
- glycan array binding signal (z-score) (Glc(b1-4)Glc): -0.32
- glycan array binding signal (z-score) (Glc(b1-6)Glc): -0.303
- glycan array binding signal (z-score) (GlcA(b1-3)Gal): -0.328
- glycan array binding signal (z-score) (GlcA(b1-3)GlcNAc): -0.345
- glycan array binding signal (z-score) (GlcA(b1-6)Gal): 0.615
- glycan array binding signal (z-score) [12]: -0.309
- glycan array binding signal (z-score) [13]: -0.333
